Measurements reported in PMC12820563.
This is one part of the list. The list includes weakly bound sequences.

What follows are sequences tested against T1, MBP-FoxP3dN (UniProt Q99JB6) (assay: PD-seq (MBP pull-down with sequencing)). Conditions: 20 mM Tris-HCl pH 7.5, 100 mM NaCl, 1.5 mM MgCl2, 0.4 uM protein, 0.1 uM dsDNA library, 30 min, room temperature, amylose pull-down; high values mean tight binding; double strand, one strand shown.
T1 sequence: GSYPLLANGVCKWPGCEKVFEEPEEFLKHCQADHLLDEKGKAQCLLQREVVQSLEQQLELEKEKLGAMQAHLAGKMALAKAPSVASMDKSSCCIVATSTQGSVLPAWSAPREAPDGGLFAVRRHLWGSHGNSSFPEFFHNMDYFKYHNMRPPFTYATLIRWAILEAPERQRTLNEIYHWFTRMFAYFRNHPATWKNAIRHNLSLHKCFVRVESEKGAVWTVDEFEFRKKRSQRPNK

Row | Sequence | binding signal (RPM ratio (pull-down/input))
1 | GATGATTGTTCTCCCAGCTGATGAATTATGTGAATCGAGTAAACAAATTTTCCTAATCTTTCTGTTCAAGCGCCATCTAC | 0.607
2 | GATGATTGTTCTCCCAGCTGATGAATTATGGTGATCGAGTAAACAAATTTTCCTAATCTTTCTGTTCAAGCGCCATCTAC | 0.759
3 | GATGATTGTTCTCCCAGCTGATGAATTCACCAATTCGAGTAAACAAATTTTCCTAATCTTTCTGTTCAAGCGCCATCTAC | 0.272
4 | GATGATTGTTCTCCCAGCTGATGAATTGACTATTTCGAGTAAACAAATTTTCCTAATCTTTCTGTTCAAGCGCCATCTAC | 0.498
5 | GATGATTGTTCTCCCAGCTGATGAATTTCGATGGTCGAGTAAACAAATTTTCCTAATCTTTCTGTTCAAGCGCCATCTAC | 0.782
6 | GATGATTGTTCTCCCAGCTGATGAATTCACCGTTTCGAGTAAACAAATTTTCCTAATCTTTCTGTTCAAGCGCCATCTAC | 0.387
7 | GATGATTGTTCTCCCAGCTGATGAATTACGGGGATCGAGTAAACAAATTTTCCTAATCTTTCTGTTCAAGCGCCATCTAC | 0.327
8 | GATGATTGTTCTCCCAGCTGATGAATTTGATCGGTCGAGTAAACAAATTTTCCTAATCTTTCTGTTCAAGCGCCATCTAC | 0.32
9 | GATGATTGTTCTCCCAGCTGATGAATTGGGGGCATCGAGTAAACAAATTTTCCTAATCTTTCTGTTCAAGCGCCATCTAC | 0.87
10 | GATGATTGTTCTCCCAGCTGATGAATTAAATGTGTCGAGTAAACAAATTTTCCTAATCTTTCTGTTCAAGCGCCATCTAC | 1.18
11 | GATGATTGTTCTCCCAGCTGATGAATTCGTGGTATCGAGTAAACAAATTTTCCTAATCTTTCTGTTCAAGCGCCATCTAC | 1.14
12 | GATGATTGTTCTCCCAGCTGATGAATTCGAACTCTCGAGTAAACAAATTTTCCTAATCTTTCTGTTCAAGCGCCATCTAC | 0.359
13 | GATGATTGTTCTCCCAGCTGATGAATTGAGAGAGTCGAGTAAACAAATTTTCCTAATCTTTCTGTTCAAGCGCCATCTAC | 0.249
14 | GATGATTGTTCTCCCAGCTGATGAATTTTCAAAGTCGAGTAAACAAATTTTCCTAATCTTTCTGTTCAAGCGCCATCTAC | 0.204
15 | GATGATTGTTCTCCCAGCTGATGAATTTACCACTTCGAGTAAACAAATTTTCCTAATCTTTCTGTTCAAGCGCCATCTAC | 0.564
16 | GATGATTGTTCTCCCAGCTGATGAATTCGGCGTCTCGAGTAAACAAATTTTCCTAATCTTTCTGTTCAAGCGCCATCTAC | 3.54
17 | GATGATTGTTCTCCCAGCTGATGAATTCGGCGTGTCGAGTAAACAAATTTTCCTAATCTTTCTGTTCAAGCGCCATCTAC | 3.73
18 | GATGATTGTTCTCCCAGCTGATGAATTAATGGCGTCGAGTAAACAAATTTTCCTAATCTTTCTGTTCAAGCGCCATCTAC | 0.871
19 | GATGATTGTTCTCCCAGCTGATGAATTCAAGGCATCGAGTAAACAAATTTTCCTAATCTTTCTGTTCAAGCGCCATCTAC | 0.603
20 | GATGATTGTTCTCCCAGCTGATGAATTTTAGTACTCGAGTAAACAAATTTTCCTAATCTTTCTGTTCAAGCGCCATCTAC | 0.491
21 | GATGATTGTTCTCCCAGCTGATGAATTATGCCTGTCGAGTAAACAAATTTTCCTAATCTTTCTGTTCAAGCGCCATCTAC | 5.87

Row | Sequence | binding signal (RPM ratio (pull-down/input))
22 | GATGATTGTTCTCCCAGCTGATGAATTGCTAAATTCGAGTAAACAAATTTTCCTAATCTTTCTGTTCAAGCGCCATCTAC | 0.592
23 | GATGATTGTTCTCCCAGCTGATGAATTACCATCCTCGAGTAAACAAATTTTCCTAATCTTTCTGTTCAAGCGCCATCTAC | 0.431
24 | GATGATTGTTCTCCCAGCTGATGAATTCAAATGGTCGAGTAAACAAATTTTCCTAATCTTTCTGTTCAAGCGCCATCTAC | 0.349
25 | GATGATTGTTCTCCCAGCTGATGAATTGTGTGAATCGAGTAAACAAATTTTCCTAATCTTTCTGTTCAAGCGCCATCTAC | 0.7
26 | GATGATTGTTCTCCCAGCTGATGAATTAAGAGATTCGAGTAAACAAATTTTCCTAATCTTTCTGTTCAAGCGCCATCTAC | 0.396
27 | GATGATTGTTCTCCCAGCTGATGAATTCATCCCATCGAGTAAACAAATTTTCCTAATCTTTCTGTTCAAGCGCCATCTAC | 0.384
28 | GATGATTGTTCTCCCAGCTGATGAATTCATCATATCGAGTAAACAAATTTTCCTAATCTTTCTGTTCAAGCGCCATCTAC | 0.849
29 | GATGATTGTTCTCCCAGCTGATGAATTCAGCACCTCGAGTAAACAAATTTTCCTAATCTTTCTGTTCAAGCGCCATCTAC | 1.04
30 | GATGATTGTTCTCCCAGCTGATGAATTCTTACTTTCGAGTAAACAAATTTTCCTAATCTTTCTGTTCAAGCGCCATCTAC | 0.309
31 | GATGATTGTTCTCCCAGCTGATGAATTGCTTGTGTCGAGTAAACAAATTTTCCTAATCTTTCTGTTCAAGCGCCATCTAC | 2.01
32 | GATGATTGTTCTCCCAGCTGATGAATTGTGTCACTCGAGTAAACAAATTTTCCTAATCTTTCTGTTCAAGCGCCATCTAC | 4.29
33 | GATGATTGTTCTCCCAGCTGATGAATTAATGCGGTCGAGTAAACAAATTTTCCTAATCTTTCTGTTCAAGCGCCATCTAC | 1.56
34 | GATGATTGTTCTCCCAGCTGATGAATTCGAGAGGTCGAGTAAACAAATTTTCCTAATCTTTCTGTTCAAGCGCCATCTAC | 0.213
35 | GATGATTGTTCTCCCAGCTGATGAATTGTAGCGTTCGAGTAAACAAATTTTCCTAATCTTTCTGTTCAAGCGCCATCTAC | 1.71
36 | GATGATTGTTCTCCCAGCTGATGAATTACTATGCTCGAGTAAACAAATTTTCCTAATCTTTCTGTTCAAGCGCCATCTAC | 0.509
37 | GATGATTGTTCTCCCAGCTGATGAATTAAAATGATCGAGTAAACAAATTTTCCTAATCTTTCTGTTCAAGCGCCATCTAC | 0.255
38 | GATGATTGTTCTCCCAGCTGATGAATTTTTTCCTTCGAGTAAACAAATTTTCCTAATCTTTCTGTTCAAGCGCCATCTAC | 0.173
39 | GATGATTGTTCTCCCAGCTGATGAATTTTGAACCTCGAGTAAACAAATTTTCCTAATCTTTCTGTTCAAGCGCCATCTAC | 0.382
40 | GATGATTGTTCTCCCAGCTGATGAATTCTAAATATCGAGTAAACAAATTTTCCTAATCTTTCTGTTCAAGCGCCATCTAC | 0.765
41 | GATGATTGTTCTCCCAGCTGATGAATTTGGTTCGTCGAGTAAACAAATTTTCCTAATCTTTCTGTTCAAGCGCCATCTAC | 1.3
42 | GATGATTGTTCTCCCAGCTGATGAATTATTTCATTCGAGTAAACAAATTTTCCTAATCTTTCTGTTCAAGCGCCATCTAC | 0.381

Row | Sequence | binding signal (RPM ratio (pull-down/input))
43 | GATGATTGTTCTCCCAGCTGATGAATTGTCCTAATCGAGTAAACAAATTTTCCTAATCTTTCTGTTCAAGCGCCATCTAC | 0.391
44 | GATGATTGTTCTCCCAGCTGATGAATTTTCGTACTCGAGTAAACAAATTTTCCTAATCTTTCTGTTCAAGCGCCATCTAC | 0.417
45 | GATGATTGTTCTCCCAGCTGATGAATTCATCGCCTCGAGTAAACAAATTTTCCTAATCTTTCTGTTCAAGCGCCATCTAC | 0.584
46 | GATGATTGTTCTCCCAGCTGATGAATTCTCCGCGTCGAGTAAACAAATTTTCCTAATCTTTCTGTTCAAGCGCCATCTAC | 0.372
47 | GATGATTGTTCTCCCAGCTGATGAATTAGGAGACTCGAGTAAACAAATTTTCCTAATCTTTCTGTTCAAGCGCCATCTAC | 0.378
48 | GATGATTGTTCTCCCAGCTGATGAATTGACATAATCGAGTAAACAAATTTTCCTAATCTTTCTGTTCAAGCGCCATCTAC | 0.677
49 | GATGATTGTTCTCCCAGCTGATGAATTATGCCCATCGAGTAAACAAATTTTCCTAATCTTTCTGTTCAAGCGCCATCTAC | 1.9
50 | GATGATTGTTCTCCCAGCTGATGAATTACTTGCGTCGAGTAAACAAATTTTCCTAATCTTTCTGTTCAAGCGCCATCTAC | 0.618
51 | GATGATTGTTCTCCCAGCTGATGAATTAGCGCGTTCGAGTAAACAAATTTTCCTAATCTTTCTGTTCAAGCGCCATCTAC | 1.62
52 | GATGATTGTTCTCCCAGCTGATGAATTAAAACACTCGAGTAAACAAATTTTCCTAATCTTTCTGTTCAAGCGCCATCTAC | 0.776
53 | GATGATTGTTCTCCCAGCTGATGAATTCCACAGATCGAGTAAACAAATTTTCCTAATCTTTCTGTTCAAGCGCCATCTAC | 0.212
54 | GATGATTGTTCTCCCAGCTGATGAATTATTATCATCGAGTAAACAAATTTTCCTAATCTTTCTGTTCAAGCGCCATCTAC | 1.13
55 | GATGATTGTTCTCCCAGCTGATGAATTAGACAATTCGAGTAAACAAATTTTCCTAATCTTTCTGTTCAAGCGCCATCTAC | 0.526
56 | GATGATTGTTCTCCCAGCTGATGAATTGTCACGATCGAGTAAACAAATTTTCCTAATCTTTCTGTTCAAGCGCCATCTAC | 0.439
57 | GATGATTGTTCTCCCAGCTGATGAATTGGTAGACTCGAGTAAACAAATTTTCCTAATCTTTCTGTTCAAGCGCCATCTAC | 0.482
58 | GATGATTGTTCTCCCAGCTGATGAATTAGAGGCGTCGAGTAAACAAATTTTCCTAATCTTTCTGTTCAAGCGCCATCTAC | 1.19
59 | GATGATTGTTCTCCCAGCTGATGAATTCATCATTTCGAGTAAACAAATTTTCCTAATCTTTCTGTTCAAGCGCCATCTAC | 1.25
60 | GATGATTGTTCTCCCAGCTGATGAATTATGGATATCGAGTAAACAAATTTTCCTAATCTTTCTGTTCAAGCGCCATCTAC | 0.65
61 | GATGATTGTTCTCCCAGCTGATGAATTGTCTTTGTCGAGTAAACAAATTTTCCTAATCTTTCTGTTCAAGCGCCATCTAC | 1.12
62 | GATGATTGTTCTCCCAGCTGATGAATTTCTCCCATCGAGTAAACAAATTTTCCTAATCTTTCTGTTCAAGCGCCATCTAC | 0.254
63 | GATGATTGTTCTCCCAGCTGATGAATTTTTTTACTCGAGTAAACAAATTTTCCTAATCTTTCTGTTCAAGCGCCATCTAC | 0.35
